# Assay results: PubChem BioAssay AID504332 (National Center for Advancing Translational Sciences (NCATS), 2011)
# The whole screen tested about 350,000 compounds, of which about 31,000 (8.9%) were called active. This list was built around the results that the source calls inconclusive (neither active nor inactive); the mix of calls is not that of the screen. Calls follow the shape of the dose curve; as a rule, active = well fitted inhibition curve with a large enough effect; inconclusive = small, poorly fitted or top-dose-only effect; inactive = no such curve, though single readings can be large or run the other way. Potencies beside an inconclusive call are fits to weak or partial responses and may not hold up.
# Target: Histone-lysine N-methyltransferase EHMT2 (Homo sapiens) (UniProt Q96KQ7)
# UniProt Q96KQ7, sequence (Q96KQ7 whole entry, looked up): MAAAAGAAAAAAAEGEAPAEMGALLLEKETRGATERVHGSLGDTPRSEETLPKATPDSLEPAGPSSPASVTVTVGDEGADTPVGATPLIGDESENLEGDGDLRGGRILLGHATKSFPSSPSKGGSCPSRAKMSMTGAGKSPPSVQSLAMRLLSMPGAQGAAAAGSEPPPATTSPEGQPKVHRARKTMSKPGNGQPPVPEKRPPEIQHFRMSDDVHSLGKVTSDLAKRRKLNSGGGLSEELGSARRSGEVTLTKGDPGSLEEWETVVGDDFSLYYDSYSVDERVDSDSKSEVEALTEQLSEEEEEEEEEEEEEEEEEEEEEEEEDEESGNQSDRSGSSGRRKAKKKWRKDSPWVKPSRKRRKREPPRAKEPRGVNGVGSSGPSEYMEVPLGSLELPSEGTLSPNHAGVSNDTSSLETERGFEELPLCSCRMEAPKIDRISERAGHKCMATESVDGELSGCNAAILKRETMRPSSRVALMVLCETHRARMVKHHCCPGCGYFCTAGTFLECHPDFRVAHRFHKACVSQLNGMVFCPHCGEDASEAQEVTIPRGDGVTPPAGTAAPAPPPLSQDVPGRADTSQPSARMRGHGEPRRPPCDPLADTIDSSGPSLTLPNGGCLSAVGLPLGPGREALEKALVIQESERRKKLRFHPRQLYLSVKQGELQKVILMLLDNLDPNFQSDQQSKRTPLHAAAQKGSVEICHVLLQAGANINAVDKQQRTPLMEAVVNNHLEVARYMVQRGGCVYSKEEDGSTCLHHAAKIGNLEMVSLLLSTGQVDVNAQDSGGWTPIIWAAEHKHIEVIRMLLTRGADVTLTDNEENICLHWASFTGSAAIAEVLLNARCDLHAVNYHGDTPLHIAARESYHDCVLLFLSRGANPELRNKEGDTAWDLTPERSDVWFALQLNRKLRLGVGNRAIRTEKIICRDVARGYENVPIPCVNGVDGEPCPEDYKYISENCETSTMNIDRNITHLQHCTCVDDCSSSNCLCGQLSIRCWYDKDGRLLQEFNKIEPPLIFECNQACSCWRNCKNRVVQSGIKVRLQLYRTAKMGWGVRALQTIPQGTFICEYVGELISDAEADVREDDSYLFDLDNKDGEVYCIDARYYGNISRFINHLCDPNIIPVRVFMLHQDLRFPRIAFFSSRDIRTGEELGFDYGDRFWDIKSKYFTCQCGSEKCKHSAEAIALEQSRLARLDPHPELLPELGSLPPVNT
# Assay: qHTS Assay for Inhibitors of Histone Lysine Methyltransferase G9a; also: nearly all actives have a fitted effect of over 75% in size
# Settings: G9a H3K9 monomethylation, AlphaScreen, 2 h; activity, negative = inhibition: at 59 µM (top of the series) unless noted
# Outline: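 Step 1: enzyme (final 20 nM) with compound, 15 min RT. Step 2: substrate peptide 500 nM and SAM 20 uM, 2 h RT. Step 3: anti-H3K9me1 antibody and AlphaScreen beads, 10 min, then plate read.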
# % is scaled to controls: 0 for no effect and ±100 for the full control effect; potency is read from the fitted curve at half-maximal effect; tags tell the direction and shape of the fitted curve.
SMILES,Potency,"activity, negative = inhibition"
COc1ccc2cc3c(N)nn(C(=O)c4ccc(F)cc4Cl)c3nc2c1,"inconclusive: 25.1 µM [inhibitor, partial curve, poor fit]",
Nc1nc(C2CCCCC2)cs1,"inconclusive: 56.2 µM [inhibitor, partial curve, poor fit]",
COc1cc(-c2noc(CCCC(=O)NCc3ccco3)n2)cc(OC)c1OC,"inconclusive: 17.8 µM [inhibitor, single point]",
Cc1cc(-c2c(C)[nH]n(-c3ccc(Cl)cc3)c2=O)n(-c2ccc(Cl)cc2)n1,"inconclusive: 70.8 µM [inhibitor, single point]",
Cc1ccc(OCCC(=O)Nc2ccc(S(=O)(=O)Nc3cc(C)nc(C)n3)cc2)cc1,,inactive: -44.9% [at 102 µM]
COc1cc(/C=C2/C(=O)ON=C2c2ccccc2)ccc1O,"inconclusive: 31.6 µM [inhibitor, single point]",
CCn1c(=O)n(CC2CCC(C(=O)NC(C)C)CC2)c(=O)c2sccc21 (stereo not drawn),,inactive: 4.5%
COc1ccc(NC(=O)C(=O)N2N=C3CCCCC3C2(O)C(F)(F)F)cc1 (stereo not drawn),"inconclusive: 63.1 µM [inhibitor, single point]",
Cc1ccccc1-c1cc(C(=O)Nc2sc(C(=O)OC(C)C)c(C)c2C#N)c2ccccc2n1,active: 44.7 µM,
Oc1ccc2c(ccc3[nH]cnc32)c1,active: 50.1 µM,
Cn1c(N=Nc2ccc(N3CCOCC3)cc2)[n+](C)c2ccccc21,active: 17.8 µM,
COCc1cc(C)nc(SCC(=O)Nc2ccc(C)c(C)c2)c1C#N,,inactive: 4.8% [at 12.7 µM]
COc1ccccc1NC(=O)CSc1ccc2nnc(-c3ccccn3)n2n1,"inconclusive: 35.5 µM [inhibitor, full curve]",
O=C(CC1OC(=O)c2ccccc21)NCC1COc2ccccc2O1 (stereo not drawn),"inconclusive: 89.1 µM [inhibitor, single point]",
CCOC(=O)/C=C1\SCC(=O)N1CC(=O)NC(C)C,active: 3.55 µM,
CCOC(=O)[C@H]1[C@H]2COc3cc(OC)ccc3[C@@H]2N2C(=O)c3cc(F)ccc3NC(=O)[C@@]12C,,inactive: 9.23% [at 2.33 µM]
COC(=O)CCC(=O)Nc1ccc(N=Nc2ccccc2)cc1,active: 10 µM,
CCn1nnc(NC(=O)c2cccnc2)n1,active: 39.8 µM,
Cc1ccc(/C=C(\CCC(=O)O)c2nc3ccccc3s2)cc1[N+](=O)[O-],,inactive: -8.1%
CCc1ccc(-c2cc(C(F)(F)F)n3nc(C(=O)Nc4cnn(Cc5ccc(C)cc5)c4)cc3n2)s1,,inactive: -11.4% [at 102 µM]
Cc1c(O)cc2c(c1O)C(=O)CC(c1ccc(O)cc1)O2 (stereo not drawn),,inconclusive: -62.1% [inhibitor]
CCc1nnc(NC(=O)CN2C(=O)c3ccccc3C2=O)s1,,inactive: 0.968%
Oc1ccc(C23CCCC2C2(CCCC2)c2ccc(O)cc2O3)c(O)c1 (stereo not drawn),"inconclusive: 14.1 µM [inhibitor, single point]",
Cc1ccc(CN2CC(C(=O)N3CCN(S(=O)(=O)c4cccc(F)c4)CC3)CC2=O)cc1 (stereo not drawn),"inconclusive: 8.91 µM [inhibitor, partial curve, poor fit]",

SMILES,Potency,"activity, negative = inhibition"
COc1cc(/C=N/NC(=O)C2=NNC(=O)C2C)ccc1O (stereo not drawn),"inconclusive: 39.8 µM [inhibitor, partial curve, poor fit]",
CC(=O)N1CCN(S(=O)(=O)c2cccc(C(=O)Nc3nccs3)c2)CC1,"inconclusive: 31.6 µM [inhibitor, partial curve, poor fit]",
Cc1ccc(C2=NN=C(NC(=O)C(F)(F)F)SC2)cc1,active: 28.2 µM,
Cc1ccc(C(c2nnnn2C2CCCC2)N2c3ccccc3CC2C)cc1 (stereo not drawn),active: 70.8 µM,
Cc1cc(C)cc(OCC(=O)N2N=C(C(F)(F)F)CC2(O)C(C)(C)C)c1 (stereo not drawn),active: 1.58 µM,
O=C(NCc1cccc(C(F)(F)F)c1)C1CCCN(c2ncccn2)C1 (stereo not drawn),,inactive: -32.5%
C#CC[N+](C)(C)CC#Cc1ccc(Cl)cc1,"inconclusive: 89.1 µM [inhibitor, single point]",
COCCNC(=O)c1cc(C(=O)CC(C)C)c[nH]1,,inconclusive: -52.9% [inhibitor]
O=S(=O)(c1ccc(SCc2ccc(Br)cc2)nc1)N1CCCCC1,"inconclusive: 89.1 µM [inhibitor, single point]",
Cc1csc(=O)n1CC(=O)Nc1nc2ccccc2s1,"inconclusive: 25.1 µM [inhibitor, single point]",
O=S(=O)(c1ccccc1)c1nnn2c1nc(NC1CCCCCC1)c1sccc12,,inactive: -3.21%
N#Cc1ccccc1S(=O)(=O)N1CCN(c2nc(-c3cccnc3)nc3ccccc23)CC1,active: 50.1 µM,
CC(C)N=c1scc(-c2ccco2)n1/N=C/c1ccc(O)c(O)c1,"inconclusive: 3.55 µM [inhibitor, single point]",
COc1ccc2cc(C(c3nnnn3C3CCCC3)N3CCc4ccccc4C3)c(=O)[nH]c2c1 (stereo not drawn),active: 10 µM,
O=C(NNc1ccc(C2CCCCC2)cc1)C(O)(c1ccccc1)c1cccs1 (stereo not drawn),,inactive: 0.877% [at 0.501 µM]
Cc1ccc(S(=O)(=O)N2CCN(C(=O)C(F)(F)F)C2c2ccc(N(C)C)cc2)cc1 (stereo not drawn),,inactive: 19.5% [at 102 µM]
Cn1c(C(=O)NCCCN2CCc3ccccc3C2)cc2c(=O)n(C)c3ccccc3c21,"inconclusive: 79.4 µM [inhibitor, single point]",
CCOc1cc(/C=C2\CCn3c2nc2cc(Cl)ccc2c3=O)ccc1O,"inconclusive: 89.1 µM [inhibitor, single point]",
CCc1ccccc1NC(=O)CC(NCc1ccccc1)C(=O)O (stereo not drawn),active: 28.2 µM,
O=C(Nc1ccc(S(=O)(=O)NC2=NCCCCC2)cc1)c1ccc(Cl)cc1Cl,"inconclusive: 50.1 µM [inhibitor, partial curve, poor fit]",
COc1ccc(NC(=O)C2CC(c3ccccc3O)=NO2)cc1OC (stereo not drawn),active: 44.7 µM,
CCN(CC(=O)Nc1c(F)cccc1F)C(=O)/C=C/c1ccc(Br)s1,,inactive: -1.65% [at 102 µM]
CC(=O)NC(c1ccc([N+](=O)[O-])cc1)c1c(O)ccc2ccccc12 (stereo not drawn),active: 44.7 µM,
Cc1cccc(NC(=O)Nc2cccnc2)c1C,"inconclusive: 25.1 µM [inhibitor, partial curve, poor fit]",
